Experimental data taken from ChEMBL document CHEMBL4888484, “Replenishing the malaria drug discovery pipeline: Screening and hit evaluation of the MMV Hit Generation Library 1 (HGL1) against asexual blood stage Plasmodium falciparum ,using a nano luciferase reporter read-out” (2022).
Several values for one entry are separate records, joined by “and”; a condition that tells them apart may be missing. Equal values may be shown once. The whole screen tested about 150,000 compounds, of which about 540 (0.36%) showed an effect of 50% or more. The list shows a part of the results.

Tested on: Plasmodium falciparum
Experiment: Primary screen in NF54 nanoGlo assay, in single point, at 2uM, 72h; a lower Z score goes with more inhibition
Assay type: functional, Erythrocyte
Details: timepoint 72 hour

Row | Compound | % Inhibition [%] | Z score | % Inhibition (2 µM)
1 | CN(c1ccc(C#N)nn1)C1CCCC1C(C)(C)C (stereo not drawn) | -9 | 1.26 | –
2 | CC(C)S(=O)(=O)CC(=O)N1CCCCC[C@H]1c1noc(-c2ccccc2)n1 | -7 | 0.88 | –
3 | C[C@@H](C(=O)N1CCCN(c2cc(-c3ccc(Cl)cc3)n[nH]2)CC1)c1ccccc1 | -16 | 1.63 | –
4 | CNC(=O)c1cccc(C(=O)O[C@@H]2CCC[C@H]2n2cccn2)c1 | -8 | 1.02 | –
5 | COc1ccc(S(=O)(=O)Nc2c(C)[nH]c(=O)[nH]c2=O)cc1OC | – | – | 1% and -15%
6 | CS(=O)(=O)N1CC2CC=CCC2C1 (stereo not drawn) | 9 | -1.01 | –
7 | CC(C)n1ncnc1CN[C@@H](C)c1ccc(-c2cccc(C#N)c2)cc1 | -9 | 1.16 | –
8 | OCC(CO)[C@H]1CCN(c2nccc(C(F)(F)F)n2)C1 | -2 | 0.48 | –
9 | COc1ccc(C(=O)N2CC[C@H](Oc3ccc4ccccc4n3)C2)c(OC)c1 | -3 | 0.48 | –
10 | COC(=O)C[C@]1(C(=O)OC)N[C@@H](c2cccc(C)n2)[C@H]2C(=O)N(C)C(=O)[C@H]21 | -11 | 1.58 | –
11 | CC1CC(NC(C)c2ccccc2OCc2ccccc2)CCO1 (stereo not drawn) | -2 | 0.24 | –
12 | O=C(NCc1ccc(F)cc1)N1CC(Oc2cccc(C(F)(F)F)n2)C1 | -3 | 0.4 | –
13 | OCCN(Cc1cccnc1)Cc1cc(Cl)cc2c1OCC2 | 7 | -0.6 | –
14 | CCOc1cc(C(=O)N[C@H]2CCS(=O)(=O)C2)ncn1 | -2 | 0.29 | –
15 | O=C1CCN(C(=O)[C@H]2CCCO2)C2(CCC2)C1 | -5 | 0.95 | –
16 | CC(C)=CCN1CCN(C(=O)c2ccc(Cl)cc2)[C@H]2CS(=O)(=O)C[C@H]21 | -2 | 0.37 | –
17 | COc1cccc(Cn2c(=O)c3sccc3n(CC(=O)N3CCCCC3)c2=O)c1 | 31 | -3.53 | –
18 | CC(C)c1cnc(N[C@H]2CCN(CC(=O)N(C)C)C[C@@H]2O)nc1 | -1 | 0.2 | –
19 | Cc1nc(CNCc2nc(C)c(C)n2C)cs1 | -6 | 0.79 | –
20 | Cc1ccc(F)c(N2CCC(NC(=O)[C@@H]3C[C@H]3c3cnn(C)c3)CC2)c1 | -10 | 1.7 | –
21 | O=C(NC1CCOCC1)C1=NN(c2ccccc2)C(=O)CC1 | -4 | 0.61 | –

Row | Compound | % Inhibition [%] | Z score | % Inhibition (2 µM)
22 | COc1ccc(C[C@@]2(CCC(=O)NCC3(O)CCCCC3)CCC(=O)N2)cc1OC | 2 | -0.28 | –
23 | CCn1ncc2ccc(N[C@@H](C)C3CCS(=O)(=O)CC3)cc21 | -7 | 0.73 | –
24 | CCOc1cc(N2CCOCC2)c(OCC)cc1Nc1nc(C(F)(F)F)nc2cc(OC)ccc12 | -4 | 0.45 | –
25 | CN1CCCC[C@@H]1COc1nccs1 | -3 | 0.46 | –
26 | Cc1cccc(CC(=O)N2CC(n3ccnn3)C2)c1 | -10 | 1.59 | –
27 | CS(=O)(=O)C1(CNC(=O)[C@H]2CCn3cncc3C2)CCCC1 | -9 | 1.2 | –
28 | COc1ncc(Br)cc1CNC(=O)Nc1ncn(C(C)(C)C)n1 | -4 | 0.41 | –
29 | O=C(Nc1ccc2c(c1)OCO2)N1C[C@H]2CCN(Cc3ccccn3)[C@H]2C1 | -8 | 0.7 | –
30 | O=C(O)c1sc2ccccc2c1CN1CCOC[C@@]12CCOC2 | -10 | 2.02 | –
31 | CCc1cc(=O)[nH]c(-n2nc(C3CC3)cc2NC(=O)C2CCCCC2)n1 | 86 | -14.68 | –
32 | CC(=O)N1C[C@H]2CC[C@@H](C1)N(C(=O)c1ccc(F)c(C)c1)C2 | -9 | 0.97 | –
33 | CCN(C)C(=O)Nc1c(C)cccc1Cl | 0 | 0.09 | –
34 | C[C@H]1CCCCN1CCNC(=O)CCc1ccc2ccn(C)c2c1 | -8 | 0.94 | –
35 | NC(=O)[C@H]1CCN(c2ncccc2S(=O)(=O)N2CCCCC2)C1 | -11 | 2 | –
36 | Cc1cc(=O)n(CCc2ccccc2)c(C)c1C(=O)NCCc1ccccc1 | -17 | 2.15 | –
37 | CC(C)(C)CC(=O)N1CC[C@@H](CC(=O)O)[C@@H](CCN2CCN(c3ccccc3)CC2)C1 | 30 | -3.41 | –
38 | CCc1noc(C)c1NC(=O)NCCc1cncc(C)n1 | 7 | -1.32 | –
39 | CC(C)OCC(=O)Nc1ncc(S(=O)(=O)NC(C)(C)C)s1 | 8 | -0.93 | –
40 | COCCn1ccc2ccn(Cc3ccc(F)c(F)c3)c(=O)c21 | -19 | 1.65 | –
41 | Cc1cccc(CCC(=O)N[C@H]2CCOC3(CC(C(=O)O)C3)C2)c1 (stereo partly drawn) | -13 | 2.06 | –
42 | COCCCn1c(-c2ccco2)nnc1N(C)Cc1ccc(OC)c(OC(F)F)c1 | -5 | 0.78 | –
